Experimental data as given in patent US20240182596A1, “ANTI-NAPI2B ANTIBODIES AND ANTIBODY-DRUG-CONJUGATES BASED THEREON, THERAPEUTIC METHODS AND USES THEREOF” (Tubulis GmbH, priority 2022, published 2024).
Changes are numbered by the printed parent chain. Blank lines part the entries; values can stand above or below the molecule they belong to.

What was measured:
[1] = target: T1, NaPi2b (Homo sapiens, UniProt O95436); experiment: Binding KD (nmol/L) | ELISA
T1 construct: Napi2b antigen consisting of Napi2b-extracellular-loop2 expressed as Fc-fusion-6-His-tagged protein in Expi-HEK293 cells; Fc-fusion; 6-His; made in house; host or cells: Expi-HEK293 cells
T1 sequence (O95436 whole entry, looked up): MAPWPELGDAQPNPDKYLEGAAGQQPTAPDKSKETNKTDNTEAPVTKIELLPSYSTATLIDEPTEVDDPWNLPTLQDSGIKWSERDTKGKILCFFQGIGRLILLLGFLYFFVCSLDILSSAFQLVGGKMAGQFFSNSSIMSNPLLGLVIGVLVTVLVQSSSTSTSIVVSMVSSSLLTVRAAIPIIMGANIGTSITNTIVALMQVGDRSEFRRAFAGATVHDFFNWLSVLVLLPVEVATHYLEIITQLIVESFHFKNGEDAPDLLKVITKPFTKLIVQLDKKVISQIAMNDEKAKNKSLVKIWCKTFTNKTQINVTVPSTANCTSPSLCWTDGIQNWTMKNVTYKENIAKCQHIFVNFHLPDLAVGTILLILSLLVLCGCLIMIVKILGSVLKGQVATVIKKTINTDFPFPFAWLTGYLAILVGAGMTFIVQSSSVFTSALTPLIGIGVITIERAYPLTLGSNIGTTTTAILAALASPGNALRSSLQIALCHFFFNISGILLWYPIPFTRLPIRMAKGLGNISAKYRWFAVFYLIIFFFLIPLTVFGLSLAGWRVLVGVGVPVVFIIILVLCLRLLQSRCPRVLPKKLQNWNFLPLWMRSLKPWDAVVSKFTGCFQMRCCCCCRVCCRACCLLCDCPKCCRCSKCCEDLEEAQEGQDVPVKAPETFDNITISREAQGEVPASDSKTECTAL
From the text: Table printed on a drawing sheet, FIG. 20
Head of the field: Binding KD (nmol/L) | ELISA
First copying reader's note: Decimal commas and decimal points are mixed as printed; some columns (ADC retention time, cytotoxicity) refer to the antibody-drug conjugates made from the listed mAbs.
Where the first naming reader finds the target: passage: An antibody drug conjugate (ADC) comprising the anti-NaPi2b antibody according to any one of the preceding items.

[2] = target: T2, purified recombinant human Napi2b antigen (Napi2b-extracellular-loop2 Fc-fusion-6-His) (Homo sapiens, UniProt O95436); experiment: Binding to immobilized human NaPi2B evaluated by ELISA; conditions: one-site specific binding model, n=2
T2 construct: Napi2b antigen consisting of Napi2b-extracellular-loop2 expressed as Fc-fusion-6-His-tagged protein in Expi-HEK293 cells; Fc-fusion; 6-His; made in house; host or cells: Expi-HEK293 cells
T2 sequence (O95436 234-362 limits assumed): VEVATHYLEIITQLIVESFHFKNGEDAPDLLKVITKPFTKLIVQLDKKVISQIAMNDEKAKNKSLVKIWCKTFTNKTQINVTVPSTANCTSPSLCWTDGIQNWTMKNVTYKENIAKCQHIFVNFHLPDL
Experimental: Binding of increasing concentrations of parental mAb and AV mAb clones to a purified recombinant immobilized human Napi2b antigen was tested in an ELISA setting.
To determine binding of parental and AV mAb clones to Napi2b antigen, flat-bottom surface-treated 96-well-plates (Nunclon, Thermo Fisher Scientific) were coated with 1 μg/mL purified recombinant human Napi2b antigen consisting of Napi2b-extracellular-loop2 expressed as Fc-fusion-6-His-tagged protein in Expi-HEK293 cells. After blocking with 2% bovine serum albumin (Carl Roth) in 1× PBS-Tween 20 (0.05%), increasing antibody concentrations (0.00015, 0.00046, 0.00137, 0.00412, 0.01235, 0.03704, 0.11111, 0.33333, 1.00000, 3.00000, 9.00000 μg/ml) were allowed to bind for 2 hr at room temperature. Bound antibodies were detected by incubation with HRP-conjugated goat anti-human kappa light chain secondary antibody (dilution 1:10000 in blocking solution) for 1 hr at RT. […] Absorbance at 450 nm was measured within 10 min of addition of acid using a microplate reader Infinite M1000 Pro (Tecan). Apparent dissociation constants (KD) were derived by non-linear regression using a one-site specific binding model using Prism 9 software. KD in μg/ml, 0.02209 parental mAb, 0.01581 AV15, 0.01494 AV18, 0,01248 AV21, 0,01060 AV25, 0.01238 AV29.

[3] = tested on: OVCAR-3 and HCC-78; experiment: Calcein release-based ADCC assay with human NK cells; assay type: cell-based; conditions: 15 μg/ml, NK:target 4:1, 4 h
Experimental: • and AV25-P5(PEG24)-VC-PAB-Exatecan DAR8 vs the isotypes and an anti-MHC-I positive control (Invivogen) was analyzed, which is mediated after interaction with FcγRIIIa (CD16). For the Calcein release-based antibody-dependent cellular cytotoxicity (ADCC) assay, peripheral blood mononuclear cells (PBMCs) were isolated from healthy donor buffy coats (purchased from DONAS GmbH) using LeucoSep tubes (Greiner Bio-One) and Histopaque®-1077 (density 1.077 g/ml, Merck) density gradient according to standard protocols. Afterwards, natural killer (NK) cells were MACS (magnetic cell separation)-sorted using human NK cell isolation kit (Miltenyi Biotec) by negative selection according to the manufacturer's instructions yielding untouched human primary NK cells. Napi2b-positive target cells OVCAR-3 and HCC-78 (both Napi2b^high) were stained with 16 μM Calcein AM (Thermo Fisher Scientific). 40.000 NK cells and 10.000 Calcein-stained target cells were incubated at a 4:1 ratio in the presence of 15 μg/ml antibodies or ADCs. Cells permeabilized with 2.5% Triton X 100 (Merck) served as a positive control for maximum Calcein release. After 4 h, supernatants were transferred to a flat black non-binding 96-well plate (Greiner Bio-One) and fluorescence was measured at 485/535 nM via the Infinite M200 Pro reader (Tecan). The percent specific killing was calculated by dividing the Calcein released by antibody-mediated killing minus background Calcein release (NKs+targets) from Calcein released by Triton X-permeabilized cells (maximum killing) minus background Calcein release (targets only). Graphs show means of n=2±SEM.
Co-cultures of healthy donor (HD)-derived NK cells and calcein-stained target-positive tumor cells (OVCAR-3 and HCC-78), in a 4:1 ratio, were incubated with 15 μg/ml of indicated antibodies or ADCs (anti-MHC-I antibody served as positive control). The percentage of specific killing was calculated by deviding the calcein released by antibody-mediated cell killing from calcein released by Triton X-permeabilized cells (maximum killing). Graphs show means of n=2±SEM.

B2: AV18: anti-NaPi2b antibody, light chain SEQ ID NO: 14, heavy chain SEQ ID NO: 15 (antibody)
heavy: EVQLVQSGAEVVKPGASVKMSCKASGYTFTGYIIHWVKQAPGQGLEWIGAIYPGSGATSYKQKFRGRATLTADTSTSTVYMELSSLRSEDSAVYYCARGETARATFAYWGQGTLVTVSS[human IgG1 constant region with changes skipped]
light: DIQMTQSPSSLSASVGDRVTITCSASQDIGNFLNWYQQKPGKTVKVLIYYTSSLYSGVPSRFSGSGSGTDYTLTISSLQPEDFATYYCQQYSKLPLTFGQGTKLELKRTVAAPSVFIFPPSDEQLKSGTASVVCLLNNFYPREAKVQWKVDNALQSGNSQESVTEQDSKDSTYSLSSTLTLSKADYEKHKVYACEVTHQGLSSPVTKSFNRGEC
modifications: Heavy chain without a signal seqeunce; Light chain without a signal seqeunce
- Kd [1]: 99 nM

B3: AV21: anti-NaPi2b antibody, light chain SEQ ID NO: 18, heavy chain SEQ ID NO: 19 (antibody)
heavy: EVQLVQSGAEVVKPGASVKMSCKASGYTFTGQIIHWVKQAPGQGLEWIGAISPGNSGTSYKQKFRGRATLTADTSTSTVYMELSSLRSEDSAVYYCARGETARATFAYWGQGTLVTVSS[human IgG1 constant region with changes skipped]
light: B2 light
modifications: Heavy chain without a signal seqeunce; Light chain without a signal seqeunce
- Apparent dissociation constants (KD) [2]: 0,01248 μg/ml
- Kd [1]: 83 nM

B5: AV25 HC-wt: Fc-wildtype AV25 antibody, HC-wt SEQ ID NO: 61 (antibody)
heavy: EVQLVQSGAEVVKPGASVKMSCKASGYTFTGYIIHWVKQAPGQGLEWIGAIYPGSGATSYKQKFRGRATLTADTSTSTVYMELSSLRSEDSAVYYCARGETARATFAYWGQGTLVTVSS[human IgG1 constant region skipped]
light: B2 light with T51A
- ADCC activity (specific killing) [3]: triggered high ADCC activity

Further molecules by falling Kd [1], results first:

- Kd [1]: 105 nM
B1: AV15: anti-NaPi2b antibody, light chain SEQ ID NO: 10, heavy chain SEQ ID NO: 11 (antibody)
heavy: EVQLVQSGAEVVKPGASVKMSCKASGYTFTGYNIHWVKQAPGQGLEWIGAIYPGNGDTSYKQKFRGRATLTADTSTSTVYMELSSLRSEDSAVYYCARGETARATFAYWGQGTLVTVSS[human IgG1 constant region with changes skipped]
light: B2 light with N31K, T51S, L94V
modifications: Heavy chain without a signal seqeunce; Light chain without a signal seqeunce

- Kd [1]: 82 nM
B4: AV29: anti-NaPi2b antibody, light chain SEQ ID NO: 22, heavy chain SEQ ID NO: 23 (antibody)
heavy: EVQLVQSGAEVVKPGASVKMSCKASGYTFTGYNILWVKQAPGQGLEWIGAIYPGNGGTSYKQKFRGRATITADTSTSTVYMELSSLRSEDSAVYYCARGEIARATFAYWGQGTLVTVSS[human IgG1 constant region with changes skipped]
light: B2 light with T51A
modifications: Heavy chain without a signal seqeunce; Light chain without a signal seqeunce
